Source: US4520022A, “Substituted vinyl cephalosporins” (priority 1983, dated 1985)

Experiments:
[1] = tested on: Gn Ia: E. coli Juhl A15119, E. coli A9660, K. pneumoniae D11, P. mirabilis A9554, P. mirabilis A9900; conditions: for activity against the Gram- bacteria (Gn-Ia): in words
[2] = tested on: bacteria; assay: Antibacterial activity, general statements; conditions: in words
[3] = read-out: Minimum Inhibitory Concentration Gn Ia, Mueller-Hinton agar, run 1, average of five organisms
[4] = read-out: Minimum Inhibitory Concentration Gn Ia, Mueller-Hinton agar, run 2, average of five organisms
[5] = read-out: Minimum inhibitory Concentration Gn Ia, Test Medium Comparison, A: Mueller-Hinton agar, average values
[6] = read-out: Minimum inhibitory Concentration Gn Ia, Test Medium Comparison, B: Nutrient agar, average values

SMILES	activity against the Gram- bacteria (Gn-Ia) [1]	MIC [1, 3] [µg/mL]	MIC [1, 4] [µg/mL]	other results
CC/C=C\C1=C(C(=O)[O-])N2C(=O)[C@@H](NC(=O)[C@H](N)c3ccc(O)cc3)[C@H]2SC1.[Na+]	reduction of Gram- activity	4.1	–	–
CC1=C(C(=O)O)N2C(=O)[C@@H](NC(=O)[C@H](N)c3ccc(O)cc3)[C@H]2SC1 [Cefadroxil]	–	8.3 (≈ 22.8 µM)	8.3 (≈ 22.8 µM)	–
CC1=C(C(=O)O)N2C(=O)[C@@H](NC(=O)[C@H](N)c3ccccc3)[C@H]2SC1 [Cephalexin]	–	6.2 (≈ 17.8 µM)	4.1 (≈ 11.8 µM)	–
C/C=C/C1=C(C(=O)O)N2C(=O)[C@@H](NC(=O)[C@H](N)c3ccc(O)cc3)[C@H]2SC1 [Compound 8, 7β-[D-2-Amino-2-(p-hydroxyphenyl)acetamido]-3-[(E)-1-propen-1-yl]-3-cephem-4-carboxylic Acid]	–	–	–	factor by which less active against Gram- bacteria than the cis-propenyl Compound No. 9 [1]: 8
C=CC1=C(C(=O)O)N2C(=O)[C@@H](NC(=O)[C@H](N)c3ccc(O)cc3)[C@H]2SC1 [Compound 11]	reduction of Gram- activity	3.6 (≈ 9.59 µM)	–	–
N[C@@H](C(=O)N[C@@H]1C(=O)N2C(C(=O)O)=C(/C=C\Cc3ccccc3)CS[C@H]12)c1ccc(O)cc1 [Compound 15, 7β-[D-2-Amino-2-(p-hydroxyphenyl)acetamido]-3-[(Z)-3-phenyl-1-propen-1-yl]-3-cephem-4-carboxylic acid]	reduction of Gram- activity	> 50	–	–
COC/C=C\C1=C(C(=O)O)N2C(=O)[C@@H](NC(=O)[C@H](N)c3ccc(O)cc3)[C@H]2SC1 [Compound 17, 7β-[D-2-Amino-2-(p-hydroxyphenyl)acetamido]-3-[(Z)-3-methoxy-1-propen-1-yl]-3-cephem-4-carboxylic Acid]	reduction of Gram- activity	2.7 (≈ 6.44 µM)	–	–
N[C@@H](C(=O)N[C@@H]1C(=O)N2C(C(=O)O)=C(C=CCSc3cnn[nH]3)CS[C@H]12)c1ccc(O)cc1 [Compound 21, 7β-[D-2-Amino-2-(p-hydroxyphenyl)acetamido]-3-[3-(1H-1,2,3-triazol-5-yl)thio-1-propen-1-yl]-3-cephem-4-carboxylic Acid]	reduction of Gram- activity	2.7 (≈ 5.53 µM)	–	–
C/C=C\C1=C(C(=O)O)N2C(=O)[C@@H](NC(=O)[C@H](N)c3ccccc3)[C@H]2SC1 [Compound 24, 7β-(D(-)-2-Amino-2-phenylacetamido)-3-[(Z)-1-propen-1-yl]-3-cephem-4-carboxylic acid]	good activity against the Gram- bacteria	0.8 (≈ 2.14 µM)	0.8 (≈ 2.14 µM)	–
C/C=C\C1=C(C(=O)O)N2C(=O)[C@@H](NC(=O)[C@H](N)c3ccc(O)c(Cl)c3)[C@H]2SC1 [Compound 32, 7β-[D-2-Amino-2-(3-chloro-4-hydroxyphenyl)acetamido]-3-[(Z)-1-propen-1-yl]-3-cephem-4-carboxylic acid]	good activity against the Gram- bacteria	–	1.1 (≈ 2.6 µM)	–
C/C=C\C1=C(C(=O)O)N2C(=O)[C@@H](NC(=O)[C@H](N)c3ccc(O)c(O)c3)[C@H]2SC1 [Compound 37, 7β-[D(-)-2-Amino-2-(3,4-dihydroxyphenyl)acetamido]-3-[(Z)-1-propen-1-yl]-3-cephem-4-carboxylic Acid]	–	–	6.3 (≈ 15.5 µM)	antibacterial activity [2]: comparable in antibacterial effect to the other cephalosporins having the cis-propenyl group; MIC [1, 5]: 5.5 µg/mL (≈ 13.6 µM); MIC [1, 6]: 0.92 µg/mL (≈ 2.27 µM)
C/C=C\C1=C(C(=O)O)N2C(=O)[C@@H](NC(=O)[C@H](N)c3ccc(O)c(OC)c3)[C@H]2SC1 [Compound 42, 7β-[D(-)-2-Amino-2-(4-hydroxy-3-methoxyphenyl)acetamido]-3-[(Z)-1-propen-1-yl]-3-cephem-4-carboxylic Acid]	good activity against the Gram- bacteria	–	–	MIC ([1]; read-out: Minimum Inhibitory Concentration Gn Ia, Mueller-Hinton agar, not part of run 1, tested separately, average of five organisms): 0.53 µg/mL (≈ 1.26 µM); MIC [1, 5]: 0.53 µg/mL (≈ 1.26 µM); MIC [1, 6]: 0.4 µg/mL (≈ 0.954 µM)

Converted amounts (≈) assume the structure as drawn. Read-outs that look alike come from different tables or passages of the source.
